Laboratory results from the supplement of paper PMC4967469.
Lines with a small IC50 respond at low doses; fits outside the tested doses are given as limits. AUC, from the same fit, is the share of area under the viability curve across the 256-fold dose range; the more sensitive the line, the further below 1. For some assays here: Any top dose called inferred is not printed in the source and was worked back from the curve model.

Tests used:
Experiment in all cases: Viability of human cancer cell lines after 72 h of drug (GDSC screen)
Tubastatin A = compound: CN1CCc2c(c3ccccc3n2Cc2ccc(C(=O)NO)cc2)C1 [Tubastatin A]; settings: top dose 20 µM
Experimental: (§1)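 Human cancer cell lines in 384-well plates, medium with 10% serum, drug for 72 h over a 256-fold dose range (nine 2-fold or five 4-fold steps up to the top dose). Adherent lines were fixed and stained with the nucleic acid dye Syto60, suspension lines read with resazurin; signal relative to control wells, capped at 0 and 100%. One two-parameter sigmoid per drug and line, fitted in a mixed model over all curves with the slope shared within a line.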

IPA-3 = compound: Oc1ccc2ccccc2c1SSc1c(O)ccc2ccccc12 [IPA-3]; settings: top dose 32 µM; top dose inferred
Experimental: as §1

CI-1040 = compound: O=C(NOCC1CC1)c1ccc(F)c(F)c1Nc1ccc(I)cc1Cl [CI-1040]; settings: top dose 10 µM; top dose inferred
Experimental: as §1

XL-880 = compound: COc1cc2c(Oc3ccc(NC(=O)C4(C(=O)Nc5ccc(F)cc5)CC4)cc3F)ccnc2cc1OCCCN1CCOCC1 [XL-880]; settings: top dose 5.12 µM; top dose inferred
Experimental: as §1

Temozolomide = compound: Cn1nnc2c(C(N)=O)ncn2c1=O [Temozolomide]; settings: top dose 30 µM
Experimental: as §1

ZG-10 = compound: CN(C)C/C=C/C(=O)Nc1ccc(C(=O)Nc2cccc(Nc3nccc(-c4cccnc4)n3)c2)cc1 [ZG-10]; settings: top dose 10 µM; top dose inferred
Experimental: as §1

Cell Line | AUC (Tubastatin A) | IC50 (Tubastatin A) [µM] | AUC (IPA-3) | IC50 (IPA-3) [µM] | AUC (CI-1040) | IC50 (CI-1040) [µM] | AUC (XL-880) | IC50 (XL-880) [µM] | AUC (Temozolomide) | IC50 (Temozolomide) [µM] | AUC (ZG-10) | IC50 (ZG-10) [µM]
451Lu (melanoma, adherent) | 0.98 | > 20 | 0.882 | 31.4 | 0.32 | 0.202 | 0.781 | 2.04 | 0.988 | > 30 | 0.819 | 5.37
T84 (large intestine, adherent) | 0.975 | > 20 | 0.789 | 14.4 | 0.979 | > 10 | 0.753 | 1.74 | 0.982 | > 30 | 0.968 | > 10
RT4 (bladder, adherent) | 0.892 | > 20 | 0.98 | > 32 | 0.973 | > 10 | 0.55 | 0.442 | 0.986 | > 30 | 0.81 | 5.59
NUGC-4 (stomach, adherent) | 0.947 | > 20 | 0.922 | > 32 | 0.824 | 5.97 | 0.533 | 0.394 | 0.986 | > 30 | 0.815 | 5.51
HCC202 (breast, adherent) | 0.907 | > 20 | 0.924 | > 32 | 0.948 | > 10 | 0.842 | > 5.12 | 0.975 | > 30 | 0.834 | > 10
NCI-H1944 (lung adenocarcinoma, adherent) | 0.974 | > 20 | 0.928 | > 32 | 0.827 | 6.68 | 0.597 | 0.602 | 0.984 | > 30 | 0.848 | 8.18
LS-180 (large intestine, adherent) | 0.974 | > 20 | 0.982 | > 32 | 0.819 | 6.79 | 0.875 | > 5.12 | 0.982 | > 30 | 0.901 | > 10
HARA (lung squamous cell carcinoma, adherent) | 0.933 | > 20 | 0.968 | > 32 | 0.848 | 9.39 | 0.68 | 1.11 | 0.981 | > 30 | 0.787 | 5.15
TK (B-cell lymphoma, suspension) | 0.892 | > 20 | 0.829 | 17.6 | 0.985 | > 10 | 0.599 | 0.581 | 0.97 | > 30 | 0.826 | 5.36
NCI-H1568 (lung adenocarcinoma, adherent) | 0.982 | > 20 | 0.976 | > 32 | 0.969 | > 10 | 0.804 | 3.35 | 0.965 | > 30 | 0.796 | 6.05
FTC-133 (thyroid, adherent) | 0.984 | > 20 | 0.981 | > 32 | 0.848 | 8.55 | 0.98 | > 5.12 | 0.946 | > 30 | 0.772 | 4.24
H2869 (mesothelioma, adherent) | 0.93 | > 20 | 0.918 | > 32 | 0.946 | > 10 | 0.6 | 0.642 | 0.982 | > 30 | 0.886 | > 10
KYSE-150 (oesophagus, adherent) | 0.978 | > 20 | 0.88 | 30.7 | 0.943 | > 10 | 0.794 | 2.24 | 0.979 | > 30 | 0.883 | 9.98
G-401 (kidney, adherent) | 0.886 | > 20 | 0.68 | 6.71 | 0.879 | > 10 | 0.465 | 0.254 | 0.981 | > 30 | 0.909 | > 10
639-V (bladder, adherent) | 0.989 | > 20 | 0.686 | 6.06 | 0.734 | 2.56 | 0.717 | 1.18 | 0.991 | > 30 | 0.807 | 4.23
EFM-192A (breast, adherent) | 0.937 | > 20 | 0.773 | 13.9 | 0.955 | > 10 | 0.91 | > 5.12 | 0.979 | > 30 | 0.711 | 2.65
RERF-LC-KJ (lung adenocarcinoma, adherent) | 0.985 | > 20 | 0.852 | 25.8 | 0.871 | 9.95 | 0.801 | 2.58 | 0.981 | > 30 | 0.825 | 6.21
CHSA0108 (chondrosarcoma, adherent) | 0.867 | > 20 | 0.96 | > 32 | 0.876 | > 10 | 0.641 | 0.836 | 0.981 | > 30 | 0.629 | 1.5
SK-N-AS (neuroblastoma, adherent) | 0.85 | 19 | 0.913 | > 32 | 0.638 | 1.6 | 0.672 | 1.05 | 0.982 | > 30 | 0.723 | 3
NCI-H1755 (lung adenocarcinoma, adherent) | 0.96 | > 20 | 0.984 | > 32 | 0.875 | > 10 | 0.394 | 0.156 | 0.976 | > 30 | 0.76 | 4.05
BT-483 (breast, adherent) | 0.971 | > 20 | 0.963 | > 32 | 0.898 | > 10 | 0.961 | > 5.12 | 0.975 | > 30 | 0.951 | > 10
NCI-H1623 (lung adenocarcinoma, adherent) | 0.967 | > 20 | 0.945 | > 32 | 0.802 | 6.27 | 0.809 | 3.44 | 0.983 | > 30 | 0.759 | 4.24

Cell Line | AUC (Tubastatin A) | IC50 (Tubastatin A) [µM] | AUC (IPA-3) | IC50 (IPA-3) [µM] | AUC (CI-1040) | IC50 (CI-1040) [µM] | AUC (XL-880) | IC50 (XL-880) [µM] | AUC (Temozolomide) | IC50 (Temozolomide) [µM] | AUC (ZG-10) | IC50 (ZG-10) [µM]
WM35 (melanoma, adherent) | 0.873 | 19.6 | 0.943 | > 32 | 0.625 | 1.38 | 0.522 | 0.367 | 0.985 | > 30 | 0.718 | 2.61
SKN (uterus, adherent) | 0.961 | > 20 | 0.872 | > 32 | 0.778 | 4.95 | 0.866 | > 5.12 | 0.896 | > 30 | 0.692 | 2.44
OV-90 (ovary, adherent) | 0.976 | > 20 | 0.982 | > 32 | 0.457 | 0.463 | 0.767 | 2.43 | 0.96 | > 30 | 0.828 | 8.71
SF295 (glioma, adherent) | 0.958 | > 20 | 0.888 | > 32 | 0.88 | > 10 | 0.552 | 0.45 | 0.969 | > 30 | 0.868 | > 10
Hs939-T (melanoma, adherent) | 0.983 | > 20 | 0.873 | > 32 | 0.708 | 2.57 | 0.765 | 2.05 | 0.985 | > 30 | 0.791 | 4.98
KYSE-450 (oesophagus, adherent) | 0.986 | > 20 | 0.788 | 13.2 | 0.911 | > 10 | 0.474 | 0.273 | 0.987 | > 30 | 0.702 | 2.23
Hs-578-T (breast, adherent) | 0.987 | > 20 | 0.942 | > 32 | 0.751 | 3.48 | 0.77 | 2.06 | 0.983 | > 30 | 0.784 | 4.54
NCI-H2087 (lung adenocarcinoma, semi-adherent) | 0.922 | > 20 | 0.916 | > 32 | 0.762 |  | 0.772 | 2.12 | 0.975 | > 30 | 0.889 | > 10
H2722 (mesothelioma, adherent) | 0.958 | > 20 | 0.92 | > 32 | 0.939 | > 10 | 0.703 | 1.34 | 0.981 | > 30 | 0.672 | 2.08
TOV-112D (ovary, adherent) | 0.978 | > 20 | 0.81 | 17 | 0.896 | > 10 | 0.58 | 0.529 | 0.934 | > 30 | 0.71 | 2.46
NCI-H1792 (lung adenocarcinoma, adherent) | 0.99 | > 20 | 0.986 | > 32 | 0.814 | 4.8 | 0.741 | 1.43 | 0.988 | > 30 | 0.982 | > 10
LK-2 (lung squamous cell carcinoma, adherent) | 0.942 | > 20 | 0.8 | 14.4 | 0.989 | > 10 | 0.555 | 0.449 | 0.911 | > 30 | 0.782 | 3.93
JURL-MK1 (chronic myeloid leukaemia, suspension) | 0.884 | > 20 | 0.921 | > 32 | 0.188 | 0.0735 | 0.38 | 0.15 | 0.976 | > 30 | 0.777 | 3.99
MDA-MB-415 (breast, adherent) | 0.982 | > 20 | 0.972 | > 32 | 0.931 | > 10 | 0.983 | > 5.12 | 0.979 | > 30 | 0.788 | 6.09
Hs683 (glioma, adherent) | 0.983 | > 20 | 0.941 | > 32 | 0.967 | > 10 | 0.643 | 0.8 | 0.987 | > 30 | 0.908 | > 10
NCI-H841 (small cell lung carcinoma, adherent) | 0.988 | > 20 | 0.975 | > 32 | 0.906 | > 10 | 0.764 | 1.86 | 0.987 | > 30 | 0.831 | 6.38
H2795 (mesothelioma, adherent) | 0.909 | > 20 | 0.913 | > 32 | 0.652 | 1.64 | 0.525 | 0.374 | 0.986 | > 30 | 0.68 | 1.98
22RV1 (prostate, adherent) | 0.916 | > 20 | 0.869 | > 32 | 0.948 | > 10 | 0.689 | 1.24 | 0.979 | > 30 | 0.842 | 9.68
SU8686 (pancreas, adherent) | 0.98 | > 20 | 0.981 | > 32 | 0.679 | 2.11 | 0.789 | 2.58 | 0.984 | > 30 | 0.853 | 9.33
NCI-H1651 (lung adenocarcinoma, adherent) | 0.984 | > 20 | 0.946 | > 32 | 0.956 | > 10 | 0.852 | 4.44 | 0.982 | > 30 | 0.896 | > 10
WM278 (melanoma, adherent) | 0.981 | > 20 | 0.984 | > 32 | 0.672 | 2.01 | 0.59 | 0.582 | 0.982 | > 30 | 0.669 | 1.98
H2731 (mesothelioma, adherent) | 0.732 | 6.39 | 0.896 | > 32 | 0.899 | > 10 | 0.585 | 0.568 | 0.982 | > 30 | 0.745 | 3.55
